Out of some 220,000 compounds screened, about 16,000 (7.3%) were called active. The shares of active, inactive and inconclusive entries below differ from those in the screen. Calls come from the whole dose curve; as a rule, active = well fitted inhibition curve with a large enough effect (not every such curve was filed as active); inconclusive = small, poorly fitted or top-dose-only effect, or another doubt; inactive = no such curve, though single readings can be large or run the other way. No potency is given beside an inconclusive call; the fits are too rough.
The molecules below were run against Aldehyde dehydrogenase 1A1 (Homo sapiens) (UniProt P00352) (assay: qHTS Assay for Inhibitors of Aldehyde Dehydrogenase 1 (ALDH1A1)). Conditions: Purified ALDH1A1, NADH fluorescence, propionaldehyde substrate; series mostly up to 75.3 µM; activity, negative = inhibition: at the top concentration.
UniProt P00352, sequence (P00352 whole entry, looked up): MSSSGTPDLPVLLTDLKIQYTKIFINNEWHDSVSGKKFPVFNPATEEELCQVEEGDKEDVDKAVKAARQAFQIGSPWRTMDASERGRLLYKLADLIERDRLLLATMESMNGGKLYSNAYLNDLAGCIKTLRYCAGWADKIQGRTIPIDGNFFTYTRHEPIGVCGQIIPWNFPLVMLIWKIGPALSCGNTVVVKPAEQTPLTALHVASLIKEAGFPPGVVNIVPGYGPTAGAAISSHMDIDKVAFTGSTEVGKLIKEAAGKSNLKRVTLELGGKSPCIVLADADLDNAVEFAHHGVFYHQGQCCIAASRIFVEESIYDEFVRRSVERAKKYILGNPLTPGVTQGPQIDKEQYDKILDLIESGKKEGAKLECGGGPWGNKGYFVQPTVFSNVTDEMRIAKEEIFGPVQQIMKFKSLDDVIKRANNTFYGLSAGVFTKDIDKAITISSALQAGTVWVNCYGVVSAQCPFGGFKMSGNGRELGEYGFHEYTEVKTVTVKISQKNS
For `O=C(O)CCS(=O)(=O)Cc1ccccc1F`, the Potency was inconclusive [inhibitor, single point].
For `O=C(N=Nc1c(O)[nH]c2ccccc12)c1cccs1`, the “activity, negative = inhibition” value was inactive: 3.7%.
With `O=c1cc(C(F)(F)F)oc2c1ccc1ccccc12` the Potency was inconclusive [inhibitor, single point].
`Cc1ccc(S(=O)(=O)N2CCN(C(=O)CCC(=O)OCC(=O)Nc3cccc(C#N)c3)CC2)cc1` was tested, and the Potency was inconclusive [inhibitor, single point].
In the case of `C[C@H](CCC(=O)O)[C@H]1CC[C@]2(C)[C@@H]3C(=O)C[C@H]4C(C)(C)[C@@H](O)CC[C@]4(C)[C@H]3C(=O)C[C@@]12C`, the activity, negative = inhibition is reported as inactive: 0.598% [at 13.5 µM].
With `Cc1cccc(N2CCN(C(=O)CS(=O)(=O)Cc3nc(-c4ccccc4F)oc3C)CC2C)c1` (configuration not stated) the Potency was inconclusive [inhibitor, partial curve].
With `COC(=O)c1ccc(COC(=O)CNC(=O)CNC(=O)c2ccc(C)cc2)cc1` the Potency was inconclusive [inhibitor, single point].
In the case of `S=c1[nH]nc(C2CCCCC2)n1/N=C/c1ccco1`, the Potency is reported as inconclusive [inhibitor, single point].
`CCCC(C1=C(O)CC(C)(C)CC1=O)C1C(=O)CC(C)(C)CC1=O` (configuration not stated) was tested, and the Potency was active: 22.4 µM.
For `CC(C)Sc1nc(N)c2c3c(sc2n1)CN(C)CC3`, the Potency was inconclusive [inhibitor, partial curve].
For `CN1CCN(c2oc(-c3ccco3)nc2S(=O)(=O)c2ccccc2)CC1`, the Potency was active: 28.2 µM.
`O=C(Cn1cnc2c(oc3ccccc32)c1=O)N1CCN(c2ccccc2)CC1` was tested, and the Potency was inconclusive [inhibitor, single point].
`Cc1ccsc1CN1CCC(C(=O)NCc2ccccc2Cl)CC1` was tested, and the Potency was inconclusive [inhibitor, partial curve].
For `c1ccc(CCn2nnnc2CN2CCc3ccccc32)cc1`, the Potency was inconclusive [inhibitor, single point].
For `Cc1ccc(CNC(=O)/C=C/c2ccc(Br)o2)cc1`, the Potency was active: 3.55 µM.
`CN(Cc1ccccn1)Cc1nc(-c2ccc(Cl)cc2)no1` was tested, and the Potency was inconclusive [inhibitor, partial curve].
In the case of `COc1ccc(/C=C/C(=O)NCCOc2ccccc2OC)cc1`, the “activity, negative = inhibition” value is reported as inactive: 7.15%.
For `CCCn1c(SCC(=O)NC23CC4CC(CC(C4)C2)C3)n[nH]c1=O`, the Potency was inconclusive [inhibitor, partial curve].
With `COC(=O)c1cc(NC(=S)NCc2ccc(Cl)cc2)cc(C(=O)OC)c1` the Potency was active: 11.2 µM.
`CC1CCN(c2[nH]c(=S)c(C#N)c3c2CCCC3)CC1` was tested, and the Potency was active: 10 µM.
For `Cc1ccc(CN=Cc2[nH]c3ccc(Br)c(Cl)c3c2O)cc1`, the Potency was active: 0.398 µM.
With `O=C(C[n+]1ccsc1)c1ccccc1` the Potency was inconclusive [inhibitor, single point].
`COc1cccc(Cn2c(=O)c(-c3cccs3)nc3cnc(N4CCOCC4)nc32)c1` was tested, and the Potency was inconclusive [inhibitor, full curve].
For `COc1cccc(NC(=O)C(C#N)Cc2ccncc2)c1` (configuration not stated), the “activity, negative = inhibition” value was inactive: 3.8%.
`COc1ccc(-c2cc(C(F)F)n3ncc(C(=O)N4CCN(C)CC4)c3n2)cc1` was tested, and the Potency was inconclusive [inhibitor, partial curve].
With `CCOC(=O)COc1ccc(C2CC(C)=NN2c2ccccc2)cc1` (configuration not stated) the Potency was inconclusive [inhibitor, single point].
For `COCCn1nnnc1CN1CCC(C)CC1`, the Potency was inconclusive [inhibitor, full curve].
`CC(=O)N1N=C(c2ccc(Cl)cc2)OC1c1ccc(C(C)C)cc1` (configuration not stated) was tested, and the Potency was inconclusive [inhibitor, single point].
With `CCCc1c2ccccc2nc2ccccc12` the Potency was inconclusive [inhibitor, single point].
In the case of `CCCCC1(CC(=O)OC)C(=O)N(c2ccccc2)N(c2ccccc2)C1=O`, the “activity, negative = inhibition” value is reported as inactive: 5.64%.
`CC(C)=CC(=O)Nc1nnc(C)s1` was tested, and the “activity, negative = inhibition” value was inactive: -1.15%.
For `CN(C)c1ccc(C(=S)NCc2ccco2)cc1`, the Potency was active: 5.01 µM.
With `COc1ccc(CCCc2nnc(SCC(=O)NN)o2)cc1` the Potency was active: 7.94 µM.
In the case of `Cn1c(CNC(=O)c2ccco2)nnc1SCC(=O)Nc1cccc(Br)c1`, the Potency is reported as inconclusive [inhibitor, single point].
`Cc1nc([N+](=O)[O-])c(Br)n1CC(=O)c1ccc(Br)cc1` was tested, and the “activity, negative = inhibition” value was inactive: -1.3%.
`Cc1c(/C=C/C(=O)c2ccccc2)cnn1C` was tested, and the Potency was inconclusive [inhibitor, single point].
`CN1CCN(c2ncc3nc(-c4cc(F)cc(F)c4)c(=O)n(C)c3n2)CC1` was tested, and the Potency was inconclusive [inhibitor, partial curve].
For `O=C(c1ccco1)N1CCCN(Cc2nc(Cc3ccccc3)no2)CC1`, the “activity, negative = inhibition” value was inactive: -1.33%.
With `C=CCN1C=C2C(=O)C(C)(OC(=O)CCC(=O)OC)C(=O)C(Br)=C2C=C1c1ccc(OC)cc1` (configuration not stated) the Potency was inconclusive [inhibitor, single point].
`COc1cc(C(=O)NCCCNc2nc3cc(C)cc(C)c3cc2C#N)cc(OC)c1OC` was tested, and the Potency was inconclusive [inhibitor, partial curve].
`COc1ccc(-c2nc(CN3CCCC(C(=O)NC4CCCC4)C3)c(C)o2)cc1` (configuration not stated) was tested, and the Potency was inconclusive [inhibitor, single point].
`CCOC(=O)C1=C(CSc2nc(CC)c(C)cc2C#N)OC(N)=C(C#N)C1c1ccccc1` (configuration not stated) was tested, and the Potency was inconclusive [inhibitor, single point].
In the case of `Cc1ccn2cc(CNS(=O)(=O)c3ccc(Cl)s3)nc2c1`, the Potency is reported as inconclusive [inhibitor, single point].
With `COc1ccccc1C(=O)O/N=C(/c1ccncc1)c1ccc([N+](=O)[O-])cc1` the Potency was active: 20 µM.
In the case of `Cc1cc(C(=O)COc2cccnc2[N+](=O)[O-])c(C)n1Cc1cccs1`, the Potency is reported as inconclusive [inhibitor, single point].
For `Cc1cccc(C(=O)NC(=S)NCc2cccnc2)c1`, the “activity, negative = inhibition” value was inactive: 1.94%.
For `Cc1cccc(Nc2c([N+](=O)[O-])c(=O)n(C)c3ccccc23)c1`, the “activity, negative = inhibition” value was inactive: 4.26%.
For `C=CCc1c(C)nc(SC)nc1Nc1ccc(C(C)=O)cc1`, the Potency was active: 8.91 µM.
In the case of `CC(CCc1ccccc1)NC(=O)CN1CCN(c2ccccc2)CC1` (configuration not stated), the Potency is reported as active: 31.6 µM.
In the case of `C[n+]1ccccc1C1CCCC/C1=N\Nc1ccc([N+](=O)[O-])cc1[N+](=O)[O-]` (configuration not stated), the Potency is reported as inconclusive [inhibitor, single point].
For `Cc1ccc(C)c(Cn2nnc3c(=O)[nH]c(C4CCN(C(=O)c5cccs5)CC4)nc32)c1`, the “activity, negative = inhibition” value was inactive: -15.2%.
For `NS(=O)(=O)c1cccc(NC(=O)CSc2ncc(C(F)(F)F)cc2Cl)c1`, the Potency was inconclusive [inhibitor, single point].
`CCOC(=O)c1ccccc1NC(=O)C1CC(=O)N(c2ccccc2)C1` (configuration not stated) was tested, and the Potency was inconclusive [inhibitor, single point].
For `COc1ccc(NC(=O)CSc2ccc(NC(C)=O)cc2)cc1S(=O)(=O)N1CCCCC1`, the “activity, negative = inhibition” value was inactive: -10.3%.
In the case of `O=c1c2cc(N3CCOCC3)ccc2[nH]c(=S)n1CCc1ccccc1`, the Potency is reported as inconclusive [inhibitor, single point].
`NC(=O)c1nsc(C(=O)N(c2cccc(F)c2)C(C(=O)NCC2CCCO2)c2cccs2)c1N` (configuration not stated) was tested, and the Potency was inconclusive [inhibitor, single point].
In the case of `CCOC(=O)Cn1c(=O)oc2cc(S(=O)(=O)N3CCc4ccccc43)ccc21`, the Potency is reported as inconclusive [inhibitor, single point].
`COc1ccc(-c2nc(-c3ccccc3OC)no2)cc1OC` was tested, and the Potency was inconclusive [inhibitor, partial curve].
`COc1ccc(-n2c(N)c(C(=O)NCC3CCCO3)sc2=S)cc1` (configuration not stated) was tested, and the Potency was inconclusive [inhibitor, single point].
`COc1ccccc1N(C)S(=O)(=O)c1ccc(C(=O)OCC(=O)N2CCCCCC2)cc1` was tested, and the Potency was inconclusive [inhibitor, partial curve, poor fit].
In the case of `CCOc1ccc(-c2cc3cc(OC)c(OC)cc3c(C)n2)cc1`, the Potency is reported as inconclusive [inhibitor, single point].
In the case of `Cc1ccccc1OCC(=O)Nc1ccc2c(c1)n(C)c(=O)n2C`, the “activity, negative = inhibition” value is reported as inactive: 0.244%.
In the case of `COc1cc(C#N)ccc1OCC(=O)Nc1cccc(S(=O)(=O)N2CCCC2)c1`, the Potency is reported as active: 12.6 µM.
In the case of `CCn1ncc(C2=NOC(C(=O)NCc3ccc(Cl)cc3)C2)c1C` (configuration not stated), the “activity, negative = inhibition” value is reported as inactive: -0.175%.
In the case of `CCOc1ccc2nc(/N=C/c3c(C)[nH]n(-c4ccccc4)c3=O)sc2c1`, the Potency is reported as inconclusive [inhibitor, single point].
For `CO/N=C/c1ccc(N2CCN(C(=O)c3cccc(C(F)(F)F)c3)CC2)c([N+](=O)[O-])c1`, the Potency was inconclusive [inhibitor, single point].
For `CN1CCN(C(=O)c2cc(COc3c(F)cccc3F)on2)CC1c1ccccc1` (configuration not stated), the Potency was inconclusive [inhibitor, single point].
With `Cc1csc2nc(CCNS(=O)(=O)c3cccs3)cn12` the “activity, negative = inhibition” value was inactive: 1.99%.
`Nc1nc2c(F)c(F)c(F)cc2s1` was tested, and the Potency was inconclusive [inhibitor, single point].
With `COc1ccc(C(=O)COC(=O)c2ccc3ccccc3n2)cc1` the Potency was active: 17.8 µM.
In the case of `C/C(=N\NC(=O)c1cc(-c2cccnc2)nc2ccccc12)c1ccc(O)cc1O`, the Potency is reported as inconclusive [inhibitor, partial curve].
`CN(C)C(=O)N1CCN(C(=O)N2CCOCC2)CC1` was tested, and the “activity, negative = inhibition” value was inactive: -2.96%.

Reference: PubChem BioAssay AID1030 (National Center for Advancing Translational Sciences (NCATS), 2008)
Potency is the fitted concentration of half-maximal effect; tags give direction and shape of the fitted curve.
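Throughout, for activity, negative = inhibition: plate controls were no enzyme wells and a reference inhibitor.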
